Data from article PMC5551570.
Results are given in words; binding and its absence hold for the method and conditions named. Binding seen in cells or lysates may run through a third protein. Some results given as binding are weak or reduced against the parent protein; the word gives no strength.

Protein sequences, listed by entry. Tags and fused reporters are not part of them. Lines headed by an entry give the natural chain unless they say otherwise; changes in a name come on top. Chains listed by the source or under a name are the forms on record and can include a tag or linker. Residues count along the entry.
WT 1N4R human tau (P10636, form named): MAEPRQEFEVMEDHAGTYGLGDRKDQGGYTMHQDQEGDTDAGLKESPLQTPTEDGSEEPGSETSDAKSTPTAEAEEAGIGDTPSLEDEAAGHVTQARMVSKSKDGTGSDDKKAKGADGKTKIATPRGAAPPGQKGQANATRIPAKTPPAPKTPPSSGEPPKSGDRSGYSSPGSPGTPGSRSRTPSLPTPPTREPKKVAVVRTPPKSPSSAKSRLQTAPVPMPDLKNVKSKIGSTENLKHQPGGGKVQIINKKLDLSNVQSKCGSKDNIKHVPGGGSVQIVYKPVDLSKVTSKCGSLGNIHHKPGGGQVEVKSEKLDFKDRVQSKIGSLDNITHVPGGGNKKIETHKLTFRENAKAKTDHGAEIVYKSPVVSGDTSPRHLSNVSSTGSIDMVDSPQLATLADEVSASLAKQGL
UniProt P35569: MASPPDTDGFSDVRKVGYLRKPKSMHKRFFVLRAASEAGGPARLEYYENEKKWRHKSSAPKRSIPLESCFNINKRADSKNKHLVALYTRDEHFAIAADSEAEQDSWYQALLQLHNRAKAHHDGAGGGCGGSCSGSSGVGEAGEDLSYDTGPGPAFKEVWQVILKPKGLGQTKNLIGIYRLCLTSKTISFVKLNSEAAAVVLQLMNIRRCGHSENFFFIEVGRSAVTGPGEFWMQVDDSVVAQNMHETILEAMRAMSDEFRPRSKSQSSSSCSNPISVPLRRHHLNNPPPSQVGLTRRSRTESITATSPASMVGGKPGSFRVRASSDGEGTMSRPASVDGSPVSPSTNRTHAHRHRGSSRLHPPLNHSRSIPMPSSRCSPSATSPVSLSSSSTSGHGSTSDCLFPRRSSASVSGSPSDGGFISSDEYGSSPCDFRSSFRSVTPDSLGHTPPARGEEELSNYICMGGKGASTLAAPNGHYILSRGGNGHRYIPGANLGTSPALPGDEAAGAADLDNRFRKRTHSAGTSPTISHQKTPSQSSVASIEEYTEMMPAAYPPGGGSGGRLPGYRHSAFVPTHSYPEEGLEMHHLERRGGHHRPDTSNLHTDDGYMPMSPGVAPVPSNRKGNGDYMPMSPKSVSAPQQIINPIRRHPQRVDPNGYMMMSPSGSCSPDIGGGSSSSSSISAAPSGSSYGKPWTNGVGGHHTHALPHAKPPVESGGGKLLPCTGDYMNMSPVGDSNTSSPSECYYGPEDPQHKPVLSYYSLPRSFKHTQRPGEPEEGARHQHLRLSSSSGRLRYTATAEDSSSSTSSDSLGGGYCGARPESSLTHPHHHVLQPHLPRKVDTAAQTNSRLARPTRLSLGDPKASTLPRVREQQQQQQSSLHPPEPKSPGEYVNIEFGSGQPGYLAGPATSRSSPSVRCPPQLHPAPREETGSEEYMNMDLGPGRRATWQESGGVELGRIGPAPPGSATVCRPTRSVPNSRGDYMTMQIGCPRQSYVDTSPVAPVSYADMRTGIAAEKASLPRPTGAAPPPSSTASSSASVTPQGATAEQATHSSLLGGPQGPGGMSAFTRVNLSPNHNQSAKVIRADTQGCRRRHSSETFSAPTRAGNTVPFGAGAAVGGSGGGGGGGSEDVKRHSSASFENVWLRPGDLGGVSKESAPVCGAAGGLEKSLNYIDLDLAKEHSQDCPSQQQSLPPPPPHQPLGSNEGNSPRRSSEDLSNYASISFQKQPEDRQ
UniProt P15208, residues 28-1372: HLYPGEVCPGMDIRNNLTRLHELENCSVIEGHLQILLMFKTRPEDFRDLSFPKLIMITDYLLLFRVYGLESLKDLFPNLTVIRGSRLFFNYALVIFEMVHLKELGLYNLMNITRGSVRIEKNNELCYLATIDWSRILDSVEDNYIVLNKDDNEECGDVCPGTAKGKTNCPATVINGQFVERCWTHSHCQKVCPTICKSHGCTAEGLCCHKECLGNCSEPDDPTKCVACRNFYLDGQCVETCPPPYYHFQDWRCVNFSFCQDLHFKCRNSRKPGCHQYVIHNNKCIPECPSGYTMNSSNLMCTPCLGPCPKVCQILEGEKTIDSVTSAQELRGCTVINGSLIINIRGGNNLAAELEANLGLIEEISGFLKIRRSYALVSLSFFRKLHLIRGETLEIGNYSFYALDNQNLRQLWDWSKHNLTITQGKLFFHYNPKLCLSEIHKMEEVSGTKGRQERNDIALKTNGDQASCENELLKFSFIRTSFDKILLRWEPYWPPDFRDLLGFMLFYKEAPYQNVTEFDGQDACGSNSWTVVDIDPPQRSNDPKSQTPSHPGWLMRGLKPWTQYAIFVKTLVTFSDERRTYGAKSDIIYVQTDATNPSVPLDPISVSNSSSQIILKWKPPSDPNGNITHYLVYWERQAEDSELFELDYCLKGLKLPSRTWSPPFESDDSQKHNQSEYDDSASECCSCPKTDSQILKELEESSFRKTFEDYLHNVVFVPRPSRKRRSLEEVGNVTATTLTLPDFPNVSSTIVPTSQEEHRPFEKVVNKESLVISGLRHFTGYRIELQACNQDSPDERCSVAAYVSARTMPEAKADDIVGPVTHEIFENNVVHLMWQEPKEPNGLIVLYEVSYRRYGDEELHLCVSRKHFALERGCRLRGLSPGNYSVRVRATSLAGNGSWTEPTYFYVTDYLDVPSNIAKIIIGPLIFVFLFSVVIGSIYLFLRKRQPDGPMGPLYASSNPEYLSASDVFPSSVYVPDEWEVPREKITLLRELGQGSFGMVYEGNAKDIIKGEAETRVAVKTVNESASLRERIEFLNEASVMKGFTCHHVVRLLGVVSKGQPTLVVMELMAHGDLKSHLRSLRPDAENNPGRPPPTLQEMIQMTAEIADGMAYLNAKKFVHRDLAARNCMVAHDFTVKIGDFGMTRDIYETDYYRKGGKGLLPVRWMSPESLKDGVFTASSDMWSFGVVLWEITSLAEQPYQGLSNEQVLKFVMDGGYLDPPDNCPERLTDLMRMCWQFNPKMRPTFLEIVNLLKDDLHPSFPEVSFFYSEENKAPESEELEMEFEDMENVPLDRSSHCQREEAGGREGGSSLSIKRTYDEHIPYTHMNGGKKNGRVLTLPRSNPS
UniProt O08586: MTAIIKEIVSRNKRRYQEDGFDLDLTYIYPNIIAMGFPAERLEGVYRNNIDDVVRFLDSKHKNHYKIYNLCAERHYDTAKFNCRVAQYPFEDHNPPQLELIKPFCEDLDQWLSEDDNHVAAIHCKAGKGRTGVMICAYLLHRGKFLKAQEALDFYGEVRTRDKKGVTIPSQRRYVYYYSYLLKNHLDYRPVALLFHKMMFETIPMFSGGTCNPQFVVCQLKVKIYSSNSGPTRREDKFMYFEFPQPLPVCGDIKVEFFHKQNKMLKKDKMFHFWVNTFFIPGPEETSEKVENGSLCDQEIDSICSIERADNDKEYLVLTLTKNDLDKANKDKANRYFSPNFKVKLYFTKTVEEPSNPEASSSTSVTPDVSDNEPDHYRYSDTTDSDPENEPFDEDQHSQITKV

B1: protein tyrosine phosphatase 1B (PTP1B) (enzyme, UniProt P35821 1-432)
chain: MEMEKEFEEIDKAGNWAAIYQDIRHEASDFPCKVAKLPKNKNRNRYRDVSPFDHSRIKLHQEDNDYINASLIKMEEAQRSYILTQGPLPNTCGHFWEMVWEQKSRGVVMLNRIMEKGSLKCAQYWPQQEEKEMVFDDTGLKLTLISEDVKSYYTVRQLELENLTTKETREILHFHYTTWPDFGVPESPASFLNFLFKVRESGSLSLEHGPIVVHCSAGIGRSGTFCLADTCLLLMDKRKDPSSVDIKKVLLEMRRFRMGLIQTADQLRFSYLAVIEGAKFIMGDSSVQDQWKELSREDLDLPPEHVPPPPRPPKRTLEPHNGKCKELFSSHQWVSEETCGDEDSLAREEGRAQSSAMHSVSSMSPDTEVRRRMVGGGLQSAQASVPTEEELSSTEEEHKAHWPSHWKPFLVNVCMATLLATGAYLCYRVCFH
B2: SH2 domain containing inositol 5-phosphatase 2 (SHIP2) (enzyme, UniProt Q6P549 1-1257)
chain: MASVCGTPSPGGALGSPAPAWYHRDLSRAAAEELLARAGRDGSFLVRDSESVAGAFALCVLYQKHVHTYRILPDGEDFLAVQTSQGVPVRRFQTLGELIGLYAQPNQGLVCALLLPVEGEREPDPPDDRDASDVEDEKPPLPPRSGSTSISAPVGPSSPLPTPETPTTPAAESTPNGLSTVSHEYLKGSYGLDLEAVRGGASNLPHLTRTLVTSCRRLHSEVDKVLSGLEILSKVFDQQSSPMVTRLLQQQSLPQTGEQELESLVLKLSVLKDFLSGIQKKALKALQDMSSTAPPAPLQPSIRKAKTIPVQAFEVKLDVTLGDLTKIGKSQKFTLSVDVEGGRLVLLRRQRDSQEDWTTFTHDRIRQLIKSQRVQNKLGVVFEKEKDRTQRKDFIFVSARKREAFCQLLQLMKNRHSKQDEPDMISVFIGTWNMGSVPPPKNVTSWFTSKGLGKALDEVTVTIPHDIYVFGTQENSVGDREWLDLLRGGLKELTDLDYRPIAMQSLWNIKVAVLVKPEHENRISHVSTSSVKTGIANTLGNKGAVGVSFMFNGTSFGFVNCHLTSGNEKTTRRNQNYLDILRLLSLGDRQLSAFDISLRFTHLFWFGDLNYRLDMDIQEILNYISRREFEPLLRVDQLNLEREKHKVFLRFSEEEISFPPTYRYERGSRDTYAWHKQKPTGVRTNVPSWCDRILWKSYPETHIICNSYGCTDDIVTSDHSPVFGTFEVGVTSQFISKKGLSKTSDQAYIEFESIEAIVKTASRTKFFIEFYSTCLEEYKKSFENDAQSSDNINFLKVQWSSRQLPTLKPILADIEYLQDQHLLLTVKSMDGYESYGECVVALKSMIGSTAQQFLTFLSHRGEETGNIRGSMKVRVPTERLGTRERLYEWISIDKDDTGAKSKVPSVSRGSQEHRSGSRKPASTETSCPLSKLFEEPEKPPPTGRPPAPPRAVPREEPLNPRLKSEGTSEQEGVAAPPPKNSFNNPAYYVLEGVPHQLLPLEPPSLARAPLPPATKNKVAITVPAPQLGRHRTPRVGEGSSSDEDSGGTLPPPDFPPPPLPDSAIFLPPNLDPLSMPVVRGRSGGEARGPPPPKAHPRPPLPPGTSPASTFLGEVASGDDRSCSVLQMAKTLSEVDYAPGPGRSALLPNPLELQPPRGPSDYGRPLSFPPPRIRESIQEDLAEEAPCPQGGRASGLGEAGMGAWLRAIGLERYEEGLVHNGWDDLEFLSDITEEDLEEAGVQDPAHKRLLLDTLQLSK

Target: WT 1N4R human tau (human) (UniProt P10636)
Assay: co-IP; extract of N1E115 cells transfected with WT 1N4R hTau (200 ug supernatant protein; 50 mM Tris-HCl pH 7.4, 150 mM NaCl, 1 mM EDTA, 1% Nonidet, 0.5% sodium deoxycholate) incubated with antibody to tau (tau5) or PTEN and anti-IgG mouse beads for one night at 4°C; eluate blotted

Molecule | binding
IRS-1 (from UniProt P35569 1-1233) | no binding
insulin receptor (IR) (from UniProt P15208 28-1372) | no binding
phosphatase and tensin homologue on chromosome 10 (PTEN), in N1E115 cells (from UniProt O08586 1-403) (enzyme) | binds
B1 | no binding
B2 | no binding
